# Reference: the supplement of paper PMC8728848
# Some of the results follow.
# How the values were obtained:
# Test in all cases: glycan array binding signal (z-score within array); higher = stronger binding
# Details in all cases: glycan notation: IUPAC condensed, linker removed
# Glc(b1-6)Glc = target: Glc(b1-6)Glc
# How it was run: (§1)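 Columns mapping to the same glycan were averaged after glycan names were converted to IUPAC-condensed notation. The data come from 3228 arrays in the Consortium for Functional Glycomics database, limited to those with an available protein sequence. Binding is reported as a within-array Z-score averaged across arrays of one protein sequence and across linkers.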
# GlcA(b1-3)Gal = target: GlcA(b1-3)Gal
# How it was run: as §1
# GlcA(b1-3)GlcNAc = target: GlcA(b1-3)GlcNAc
# How it was run: as §1
# GlcA(b1-6)Gal = target: GlcA(b1-6)Gal
# How it was run: as §1
# [1] = target: GlcA3S(b1-3)Gal(b1-4)GlcNAc(b1-2)Man
# How it was run: as §1
# [2] = target: GlcA3S(b1-3)Gal(b1-4)GlcNAc(b1-3)Gal(b1-4)Glc
# How it was run: as §1
# [3] = target: GlcNAc(a1-3)Gal(b1-4)GlcNAc
# How it was run: as §1
# [4] = target: GlcNAc(a1-4)Gal(b1-3)GlcNAc
# How it was run: as §1
# [5] = target: GlcNAc(a1-4)Gal(b1-4)GalNAc
# How it was run: as §1
# [6] = target: GlcNAc(a1-4)Gal(b1-4)GlcNAc
# How it was run: as §1
# [7] = target: GlcNAc(a1-4)Gal(b1-4)GlcNAc(b1-3)Gal(b1-4)Glc
# How it was run: as §1
# [8] = target: GlcNAc(a1-4)Gal(b1-4)GlcNAc(b1-3)Gal(b1-4)GlcNAc
# How it was run: as §1
# [9] = target: GlcNAc(a1-4)Gal(b1-4)GlcNAc(b1-3)Gal(b1-4)GlcNAc(b1-3)Gal(b1-4)GlcNAc
# How it was run: as §1
# [10] = target: GlcNAc(a1-4)Gal(b1-4)GlcNAc(b1-3)Gal(b1-4)[Fuc(a1-3)]GlcNAc(b1-3)Gal(b1-4)[Fuc(a1-3)]GlcNAc
# How it was run: as §1
# [11] = target: GlcNAc(a1-6)Gal(b1-4)GlcNAc
# How it was run: as §1
# [12] = target: GlcNAc(b1-2)Gal(b1-3)GalNAc
# How it was run: as §1
# [13] = target: GlcNAc(b1-2)Man(a1-3)[GlcNAc(b1-2)Man(a1-6)]Man(b1-4)GlcNAc(b1-4)GlcNAc
# How it was run: as §1
# [14] = target: GlcNAc(b1-2)Man(a1-3)[GlcNAc(b1-2)Man(a1-6)]Man(b1-4)GlcNAc(b1-4)[Fuc(a1-6)]GlcNAc
# How it was run: as §1
# [15] = target: GlcNAc(b1-2)Man(a1-3)[GlcNAc(b1-4)][GlcNAc(b1-2)Man(a1-6)]Man(b1-4)GlcNAc(b1-4)GlcNAc
# How it was run: as §1
# [16] = target: GlcNAc(b1-2)Man(a1-3)[GlcNAc(b1-4)][GlcNAc(b1-2)Man(a1-6)]Man(b1-4)GlcNAc(b1-4)[Fuc(a1-6)]GlcNAc
# How it was run: as §1
# [17] = target: GlcNAc(b1-2)[GlcNAc(b1-4)]Man(a1-3)[GlcNAc(b1-2)Man(a1-6)]Man(b1-4)GlcNAc(b1-4)GlcNAc
# How it was run: as §1
# [18] = target: GlcNAc(b1-2)[GlcNAc(b1-4)]Man(a1-3)[GlcNAc(b1-4)][GlcNAc(b1-2)Man(a1-6)]Man(b1-4)GlcNAc(b1-4)GlcNAc
# How it was run: as §1
# [19] = target: GlcNAc(b1-2)[GlcNAc(b1-4)]Man(a1-3)[GlcNAc(b1-4)][GlcNAc(b1-2)[GlcNAc(b1-6)]Man(a1-6)]Man(b1-4)GlcNAc(b1-4)GlcNAc
# How it was run: as §1
# [20] = target: GlcNAc(b1-2)[GlcNAc(b1-4)]Man(a1-3)[GlcNAc(b1-4)][GlcNAc(b1-2)[GlcNAc(b1-6)]Man(a1-6)]Man(b1-4)GlcNAc(b1-4)[Fuc(a1-6)]GlcNAc
# How it was run: as §1
# [21] = target: GlcNAc(b1-2)[GlcNAc(b1-6)]Man(a1-6)[GlcNAc(b1-2)Man(a1-3)]Man(b1-4)GlcNAc(b1-4)GlcNAc
# How it was run: as §1
# [22] = target: GlcNAc(b1-2)[GlcNAc(b1-6)]Man(a1-6)[GlcNAc(b1-2)Man(a1-3)]Man(b1-4)GlcNAc(b1-4)[Fuc(a1-6)]GlcNAc
# How it was run: as §1
# [23] = target: GlcNAc(b1-2)[GlcNAc(b1-6)]Man(a1-6)[GlcNAc(b1-4)][GlcNAc(b1-2)Man(a1-3)]Man(b1-4)GlcNAc(b1-4)GlcNAc
# How it was run: as §1
# GlcNAc(b1-3)Fuc = target: GlcNAc(b1-3)Fuc
# How it was run: as §1
# GlcNAc(b1-3)Gal = target: GlcNAc(b1-3)Gal
# How it was run: as §1
# [24] = target: GlcNAc(b1-3)Gal(b1-3)GalNAc
# How it was run: as §1
# GlcNAc(b1-3)Gal(b1-4)Glc = target: GlcNAc(b1-3)Gal(b1-4)Glc
# How it was run: as §1
# [25] = target: GlcNAc(b1-3)Gal(b1-4)GlcNAc
# How it was run: as §1
# [26] = target: GlcNAc(b1-3)Gal(b1-4)GlcNAc(b1-2)Man(a1-3)[GlcNAc(b1-3)Gal(b1-4)GlcNAc(b1-2)Man(a1-6)]Man(b1-4)GlcNAc(b1-4)GlcNAc
# How it was run: as §1
# [27] = target: GlcNAc(b1-3)Gal(b1-4)GlcNAc(b1-2)Man(a1-3)[GlcNAc(b1-3)Gal(b1-4)GlcNAc(b1-2)Man(a1-6)]Man(b1-4)GlcNAc(b1-4)[Fuc(a1-6)]GlcNAc
# How it was run: as §1
# [28] = target: GlcNAc(b1-3)Gal(b1-4)GlcNAc(b1-2)[GlcNAc(b1-3)Gal(b1-4)GlcNAc(b1-6)]Man(a1-6)[GlcNAc(b1-3)Gal(b1-4)GlcNAc(b1-2)Man(a1-3)]Man(b1-4)GlcNAc(b1-4)GlcNAc
# How it was run: as §1
# [29] = target: GlcNAc(b1-3)Gal(b1-4)GlcNAc(b1-3)Gal(b1-4)GlcNAc
# How it was run: as §1
# [30] = target: GlcNAc(b1-3)Gal(b1-4)GlcNAc(b1-3)Gal(b1-4)GlcNAc(b1-2)Man(a1-3)[GlcNAc(b1-3)Gal(b1-4)GlcNAc(b1-3)Gal(b1-4)GlcNAc(b1-2)Man(a1-6)]Man(b1-4)GlcNAc(b1-4)GlcNAc
# How it was run: as §1
binder,measurement,setting,value
Cohesin-hLangerin (Homo sapiens) (protein) LDDLDAVRIKVDTVNAKPGDTVRIPVRFSGIPSKGIANCDFVYSYDPNVLEIIEIEPGDIIVDPNPDKSFDTAVYPDRKIIVFLFAEDSGTGAYAITKDGVFATIVAKVKEGAPNGLSVIKFVEVGGFANNDLVEQKTQFFDGGANVGDTTEPATPTTPVTTPTTTDDLDAASYPRFMGTISDVKTNVQLLKGRVDNISTLDSEIKKNSDGMEAAGVQIQMVNESLGYVRSQFLKLKTSVEKANAQIQILTRSWEEVSTLNAQIPELKSDLEKASALNTKIRALQGSLENMSKLLKRQNDILQVVSQGWKYFKGNFYYFSLIPKTWYSAEQFCVSRNSHLTSVTSESEQEFLYKTAGGLIYWIGLTKAGMEGDWSWVDDTPFNKVQSARFWIPGEPNNAGNNEHCGNIKAPSLQAWNDAPCDKTFLFICKRPYVPSEPHHHHHH,glycan array binding signal (z-score),Glc(b1-6)Glc,-0.292
same,glycan array binding signal (z-score),GlcA(b1-3)Gal,-0.385
same,glycan array binding signal (z-score),GlcA(b1-3)GlcNAc,-0.013
same,glycan array binding signal (z-score),GlcA(b1-6)Gal,-0.349
same,glycan array binding signal (z-score),[1],-0.429
same,glycan array binding signal (z-score),[2],-0.423
same,glycan array binding signal (z-score),[3],-0.385
same,glycan array binding signal (z-score),[4],-0.427
same,glycan array binding signal (z-score),[5],-0.401
same,glycan array binding signal (z-score),[6],-0.402
same,glycan array binding signal (z-score),[7],-0.403
same,glycan array binding signal (z-score),[8],-0.411
same,glycan array binding signal (z-score),[9],-0.395
same,glycan array binding signal (z-score),[10],-0.278
same,glycan array binding signal (z-score),[11],-0.434
same,glycan array binding signal (z-score),[12],2.67
same,glycan array binding signal (z-score),[13],-0.267
same,glycan array binding signal (z-score),[14],-0.398
same,glycan array binding signal (z-score),[15],-0.389
same,glycan array binding signal (z-score),[16],1.03
same,glycan array binding signal (z-score),[17],-0.372
same,glycan array binding signal (z-score),[18],-0.376
same,glycan array binding signal (z-score),[19],-0.435
same,glycan array binding signal (z-score),[20],-0.2
same,glycan array binding signal (z-score),[21],-0.407
same,glycan array binding signal (z-score),[22],-0.241
same,glycan array binding signal (z-score),[23],-0.439
same,glycan array binding signal (z-score),GlcNAc(b1-3)Fuc,-0.302
same,glycan array binding signal (z-score),GlcNAc(b1-3)Gal,-0.42
same,glycan array binding signal (z-score),[24],-0.192
same,glycan array binding signal (z-score),GlcNAc(b1-3)Gal(b1-4)Glc,-0.38
same,glycan array binding signal (z-score),[25],-0.291
same,glycan array binding signal (z-score),[26],-0.336
same,glycan array binding signal (z-score),[27],0.641
same,glycan array binding signal (z-score),[28],0.383
same,glycan array binding signal (z-score),[29],-0.437
same,glycan array binding signal (z-score),[30],0.693
